B1: PhoQ; a variant is named by its letters at X, in order, P23837 (parent)
chain: MKKLLRLFFPLSLRVRFLLATAAVVLVLSLAYGMVALIGYSVSFDKTTFRLLRGESNLFYTLAKWENNKLHVELPENIDKQSPTMTLIYDENGQLLWAQRDVPWLMKMIQPDWLKSNGFHEIEADVNDTSLLLSGDHSIQQQLQEVREDDDDAEMTHSVAVNVYPATSRMPKLTIVVVDTIPVELKSSYMVWSWFIYVLSANLLLVIPLLWVAAWWSLRPIEALAKEVRELEEHNRELLNPATTRELTSLVRNLNRLLKSERERYDKYRTTLTDLTHSLKTPLXXLQXXLRSLRSEKMSVSDAEPVMLEQISRISQQIGYYLHRASMRGGTLLSRELHPVAPLLDNLTSALNKVYQRKGVNISLDISPEISFVGEQNDFVEVMGNVLDNACKYCLEFVEISARQTDEHLYIVVEDDGPGIPLSKREVIFDRGQRVDTLRPGQGVGLAVAREITEQYEGKIVAGESMLGGARMEVIFGRQHSAPKDE

The other results are listed elsewhere or left out.

Variants of B1 are the subject of the assay. Nature of the assay: enrichment ratio after two sorts for PhoP signalling (ratio (wild type AVST 3.29)); higher = more functional. The settings on record: with PhoP (E. coli).
With PAMA, the enrichment ratio was no more than 0.25.

As to THAS, the enrichment ratio worked out at 1.94.

Turning to DWVW, the enrichment ratio is no more than 0.25.

QSGR: the enrichment ratio is no more than 0.25.

In the case of DMKT, the enrichment ratio was no more than 0.25.

For the variant DRPN, the enrichment ratio was no more than 0.25.

With KHFN, the enrichment ratio is no more than 0.25.

Turning to EACG, the enrichment ratio was no more than 0.25.

Take RHFT: the enrichment ratio is no more than 0.25.

With NIHR, the enrichment ratio was no more than 0.25.

Take TQNH: the enrichment ratio is 16.3.

PWWG: the enrichment ratio is no more than 0.25.

In the case of YDTH, the enrichment ratio was no more than 0.25.

For PSYC, the enrichment ratio is no more than 0.25.

As to WHTN, the enrichment ratio is no more than 0.25.

For RNFK, the enrichment ratio was no more than 0.25.

For the variant WWPS, the enrichment ratio is no more than 0.25.

In the case of NVFF, the enrichment ratio was no more than 0.25.

Regarding WDKY, the enrichment ratio is no more than 0.25.

Turning to LMCV, the enrichment ratio was no more than 0.25.

On to WTIK, for which the enrichment ratio was no more than 0.25.

IDLA: the enrichment ratio was no more than 0.25.

Take DYDH: the enrichment ratio was no more than 0.25.

Consider FNVH, for which the enrichment ratio is no more than 0.25.

Turning to KRLY, the enrichment ratio was no more than 0.25.

DSVP: the enrichment ratio is no more than 0.25.

On to SQAN, for which the enrichment ratio is 6.83.

In the case of FKAQ, the enrichment ratio is no more than 0.25.

Turning to FDPW, the enrichment ratio was no more than 0.25.

Turning to EAWP, the enrichment ratio is no more than 0.25.

Turning to LCGQ, the enrichment ratio was no more than 0.25.

Take DCVI: the enrichment ratio is no more than 0.25.

As for RQVF, the enrichment ratio was no more than 0.25.

Consider KNRK, for which the enrichment ratio was no more than 0.25.

In the case of FTFC, the enrichment ratio is no more than 0.25.

GCKV: the enrichment ratio was no more than 0.25.

On to QVNC, for which the enrichment ratio was no more than 0.25.

As to NYQP, the enrichment ratio is no more than 0.25.

Regarding NVFQ, the enrichment ratio was no more than 0.25.

As for MDRR, the enrichment ratio was no more than 0.25.

Consider TFMK, for which the enrichment ratio is no more than 0.25.

For DFLH, the enrichment ratio was no more than 0.25.

For ALPA, the enrichment ratio was no more than 0.25.

GTED: the enrichment ratio was no more than 0.25.

For the variant SLDL, the enrichment ratio is no more than 0.25.

In the case of TMWP, the enrichment ratio is no more than 0.25.

HVMF: the enrichment ratio was no more than 0.25.

On to VDTT, for which the enrichment ratio was no more than 0.25.

NYEC: the enrichment ratio was no more than 0.25.

Take KYTR: the enrichment ratio is no more than 0.25.

Consider FKQM, for which the enrichment ratio is no more than 0.25.

As to MSWC, the enrichment ratio amounted to 4.27.

ASPN: the enrichment ratio is no more than 0.25.

Take EPLH: the enrichment ratio was no more than 0.25.

Turning to DPFH, the enrichment ratio is no more than 0.25.

PTPA: the enrichment ratio was no more than 0.25.

For NRYS, the enrichment ratio is no more than 0.25.

As to RLNG, the enrichment ratio was no more than 0.25.

In the case of FNWF, the enrichment ratio is no more than 0.25.

Regarding PNYQ, the enrichment ratio is no more than 0.25.

On to YACL, for which the enrichment ratio was 5.67.

On to LVWP, for which the enrichment ratio is no more than 0.25.

Take CSIP: the enrichment ratio is no more than 0.25.

As to DRWM, the enrichment ratio is no more than 0.25.

With VQAL, the enrichment ratio was no more than 0.25.

Turning to SFEM, the enrichment ratio was 4.71.

Consider TVYP, for which the enrichment ratio is no more than 0.25.

Regarding GTEY, the enrichment ratio is no more than 0.25.

As to GHGT, the enrichment ratio is no more than 0.25.

As to QYCG, the enrichment ratio was no more than 0.25.

Regarding ECGI, the enrichment ratio is no more than 0.25.

Consider SPPW, for which the enrichment ratio was no more than 0.25.

On to SAHI, for which the enrichment ratio is no more than 0.25.

For the variant CVCT, the enrichment ratio is no more than 0.25.

Take WGDG: the enrichment ratio was no more than 0.25.

QPPR: the enrichment ratio was no more than 0.25.

With MPRI, the enrichment ratio was no more than 0.25.

Regarding AQRV, the enrichment ratio amounted to 0.258.

Regarding EIGW, the enrichment ratio was no more than 0.25.

Consider RYAW, for which the enrichment ratio is no more than 0.25.

As for YTDT, the enrichment ratio is no more than 0.25.

As for MPMH, the enrichment ratio is no more than 0.25.

Turning to WAKM, the enrichment ratio is no more than 0.25.

With YNCY, the enrichment ratio was no more than 0.25.

Turning to GGPR, the enrichment ratio is no more than 0.25.

For LGQK, the enrichment ratio is no more than 0.25.

For TDWR, the enrichment ratio was no more than 0.25.

For SFMA, the enrichment ratio was 3.47.

With WIRG, the enrichment ratio is no more than 0.25.

Turning to MQEF, the enrichment ratio is no more than 0.25.

Take AVGN: the enrichment ratio is no more than 0.25.

Take TVQV: the enrichment ratio amounted to 12.7.

In the case of LVDM, the enrichment ratio is no more than 0.25.

Consider IFDY, for which the enrichment ratio is no more than 0.25.

In the case of EIER, the enrichment ratio is no more than 0.25.

For the variant PTEP, the enrichment ratio is no more than 0.25.

As to WHAS, the enrichment ratio is no more than 0.25.

In the case of NAII, the enrichment ratio is no more than 0.25.

On to QTCC, for which the enrichment ratio is no more than 0.25.

As to QHNK, the enrichment ratio is no more than 0.25.

In the case of PCYN, the enrichment ratio is no more than 0.25.

On to AKLN, for which the enrichment ratio came out at 14.

Consider LGFV, for which the enrichment ratio is 9.51.

With RNIN, the enrichment ratio was no more than 0.25.

Consider RINR, for which the enrichment ratio is no more than 0.25.

QHKR: the enrichment ratio was no more than 0.25.

Turning to IVQS, the enrichment ratio is no more than 0.25.

As to WVVI, the enrichment ratio is no more than 0.25.

Regarding SIHE, the enrichment ratio is no more than 0.25.

For the variant GAKE, the enrichment ratio was no more than 0.25.

On to FWGE, for which the enrichment ratio is no more than 0.25.

Turning to PMGA, the enrichment ratio is no more than 0.25.

Turning to FNPK, the enrichment ratio is no more than 0.25.

On to YSWQ, for which the enrichment ratio was no more than 0.25.

On to FGPD, for which the enrichment ratio came out at 0.564.

As to IRYK, the enrichment ratio is no more than 0.25.

As to RLHY, the enrichment ratio was no more than 0.25.

Regarding FRTW, the enrichment ratio was no more than 0.25.

With TIND, the enrichment ratio was 2.17.

Turning to KTLY, the enrichment ratio was no more than 0.25.

With NRYQ, the enrichment ratio is no more than 0.25.

On to VEDC, for which the enrichment ratio was no more than 0.25.

Regarding GQNW, the enrichment ratio is no more than 0.25.

As for MIFF, the enrichment ratio was 1.81.

TPQT: the enrichment ratio was no more than 0.25.

Take RFWA: the enrichment ratio was no more than 0.25.

As for MCHP, the enrichment ratio is no more than 0.25.

As to TDPS, the enrichment ratio is no more than 0.25.

Regarding RICD, the enrichment ratio is no more than 0.25.

For EEVN, the enrichment ratio was no more than 0.25.

Turning to ASYN, the enrichment ratio is no more than 0.25.

Turning to YEEQ, the enrichment ratio is no more than 0.25.

In the case of QILC, the enrichment ratio is no more than 0.25.

For PGYD, the enrichment ratio was no more than 0.25.

For WDVR, the enrichment ratio was no more than 0.25.

As to YEQG, the enrichment ratio was 0.393.

Regarding LERC, the enrichment ratio was no more than 0.25.

As to PWII, the enrichment ratio was no more than 0.25.

Turning to DYVY, the enrichment ratio is no more than 0.25.

In the case of ILTN, the enrichment ratio is no more than 0.25.

For PPLW, the enrichment ratio is no more than 0.25.

LTEC: the enrichment ratio is no more than 0.25.

As for LTNC, the enrichment ratio was no more than 0.25.

Regarding WQAG, the enrichment ratio was no more than 0.25.

GCNG: the enrichment ratio is no more than 0.25.

For the variant CFPT, the enrichment ratio was no more than 0.25.

Consider PVME, for which the enrichment ratio is no more than 0.25.

With AEAC, the enrichment ratio turned out to be 43.5.

On to VDDD, for which the enrichment ratio was no more than 0.25.

Turning to KEAV, the enrichment ratio is no more than 0.25.

For the variant WPCP, the enrichment ratio was no more than 0.25.

PPSG: the enrichment ratio is no more than 0.25.

In the case of WMWH, the enrichment ratio was no more than 0.25.

These data come from a collection of fitness landscapes (doi:10.1126/science.1257360).
